# The supplement of paper PMC8728848
# Some of the results follow.
# B1: Epa1-NP-mutant-E227G (Candida glabrata), Q6VBJ0 (protein)
# chain: MILNPALFLNKCVCIYTTLILLLLTNGGYATSSNDISLASKDPTTFPLGCSPDITTPKKGLSMELYSYDFRKKGSYPCWDAAYLDPNYPRTGYKSHRLLAKVDGVTGNINFYYHATKGCTPQLGHLPASYNYPKPLTMTNFTMLLYGYFRPKVTGFHTFTISADDLLFVNFGAGNAFDCCRRDSSADHFGNYQAYAIWGSKTAKDELTVHLDAGVYYPIRLFYNNRGYDGALSFTFKTESNENTVSDFSEYFFSLDDTEEGCPGLISYDSSCASVKTSKIIGIDYHTETPNENLVPITKTIYHLGIPCTGTTTTPLCGSGFYDPLANKCVTINTSSTSSVTKTTSHTTSKEVSFHSSISSQKTLIPKSIPSPYGPIKSQSIPTEMETSSEISSSEYAFSDVISTPSHSPYTKKHSSLNSSSYTSTVIHSLTSYSISQGIFSTSLSEQNITSKSSTDKFSTATSMSNNITQSSIIISQFSTNNENYTTTSMHTSSDKISTETLNNSISTTTSILFSNSSTILKNNTTIISSDKDTHYHPVNPTIVCSTNKTEIICASITQPSISNSNNHWSSSVLKFNSTTVRSTLPSSAGSNETSINVPFSSSTESNTSTSSTSTSNSKMVRSTLPSSAGSNETSISVPFSSSTESNTSTSSTSTSNSKMVRSTLPSSAGSNETSINVPFSSSTESNTSTSSTSTSNSKTVRSTPFSSAGIIMTSLSQRNNKSASSYASSNSKCYNTADSCRKVHSTPSYLLTSSYTSEGVDYDCSLVSTKLKINDTNCVNNKHTTKSCLKTSVTTTIPTLEIKTARKSSSNTIGLHSYPTSSPNKSISSAPIIGYISSFKTIKTASPSYQTSDLTTITTITSLNNPGSTAVENTHESNDKSRKTSSNDISSKHSVIKETKDAVESSNKSHQTNTLKCSSIIIASSSHNSYESLGGTTLTLTLSKVYSPQNNDTLPFLEISEVNPSRTVLPESSKMMQYLTSTEERNKTARNTIATNIVSISTFHFEGEGNAIRMGYTQLLLMLIGIIVMNIGT
# Tests used:
# Test in all cases: glycan array binding signal (z-score within array); higher = stronger binding
# Conditions in all cases: glycan notation: IUPAC condensed, linker removed; mutation: E227G
# Fuc(a1-2)Gal = target: Fuc(a1-2)Gal
# In short: (§1)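 The Consortium for Functional Glycomics database supplied 3228 glycan arrays, of which those lacking an available protein sequence were dropped. The binding signal, a within-array Z-score, was averaged across arrays of the same protein sequence and across linkers. Negative scores can be read as non-binding.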
# Fuc(a1-2)Gal(b1-3)GalNAc = target: Fuc(a1-2)Gal(b1-3)GalNAc
# In short: as §1
# [1] = target: Fuc(a1-2)Gal(b1-3)GalNAc(a1-3)[Fuc(a1-2)]Gal(b1-4)Glc
# In short: as §1
# [2] = target: Fuc(a1-2)Gal(b1-3)GalNAc(a1-3)[Fuc(a1-2)]Gal(b1-4)GlcNAc
# In short: as §1
# [3] = target: Fuc(a1-2)Gal(b1-3)GalNAc(b1-3)Gal
# In short: as §1
# [4] = target: Fuc(a1-2)Gal(b1-3)GalNAc(b1-3)Gal(a1-4)Gal(b1-4)Glc
# In short: as §1
# [5] = target: Fuc(a1-2)Gal(b1-3)GalNAc(b1-4)[Neu5Ac(a2-3)]Gal(b1-4)Glc
# In short: as §1
# Fuc(a1-2)Gal(b1-3)GlcNAc = target: Fuc(a1-2)Gal(b1-3)GlcNAc
# In short: as §1
# [6] = target: Fuc(a1-2)Gal(b1-3)GlcNAc(b1-2)Man(a1-3)[Fuc(a1-2)Gal(b1-3)GlcNAc(b1-2)Man(a1-6)]Man(b1-4)GlcNAc(b1-4)GlcNAc
# In short: as §1
# [7] = target: Fuc(a1-2)Gal(b1-3)GlcNAc(b1-2)Man(a1-3)[Fuc(a1-2)Gal(b1-3)GlcNAc(b1-2)Man(a1-6)]Man(b1-4)GlcNAc(b1-4)[Fuc(a1-6)]GlcNAc
# In short: as §1
# [8] = target: Fuc(a1-2)Gal(b1-3)GlcNAc(b1-3)Gal(b1-4)Glc
# In short: as §1
# [9] = target: Fuc(a1-2)Gal(b1-3)GlcNAc(b1-3)GalNAc
# In short: as §1
# [10] = target: Fuc(a1-2)Gal(b1-3)GlcNAc(b1-3)[Fuc(a1-2)Gal(b1-3)GlcNAc(b1-6)]GalNAc
# In short: as §1
# [11] = target: Fuc(a1-2)Gal(b1-3)GlcNAc(b1-3)[Gal(b1-4)GlcNAc(b1-6)]Gal(b1-4)Glc
# In short: as §1
# [12] = target: Fuc(a1-2)Gal(b1-3)GlcNAc(b1-3)[Neu5Ac(a2-6)Gal(b1-4)GlcNAc(b1-6)]Gal(b1-4)Glc
# In short: as §1
# [13] = target: Fuc(a1-2)Gal(b1-3)GlcNAc6S
# In short: as §1
# [14] = target: Fuc(a1-2)Gal(b1-3)[Fuc(a1-4)]GlcNAc
# In short: as §1
# [15] = target: Fuc(a1-2)Gal(b1-3)[Fuc(a1-4)]GlcNAc(b1-2)Man(a1-3)[Fuc(a1-2)Gal(b1-3)[Fuc(a1-4)]GlcNAc(b1-2)Man(a1-3)]Man(b1-4)GlcNAc(b1-4)GlcNAc
# In short: as §1
# [16] = target: Fuc(a1-2)Gal(b1-3)[Fuc(a1-4)]GlcNAc(b1-2)Man(a1-3)[Fuc(a1-2)Gal(b1-3)[Fuc(a1-4)]GlcNAc(b1-2)Man(a1-6)]Man(b1-4)GlcNAc(b1-4)[Fuc(a1-6)]GlcNAc(b1-4)[Fuc(a1-6)]GlcNAc
# In short: as §1
# [17] = target: Fuc(a1-2)Gal(b1-3)[Fuc(a1-4)]GlcNAc(b1-3)[Fuc(a1-3)[Gal(b1-4)]GlcNAc(b1-6)]Gal(b1-4)Glc
# In short: as §1
# [18] = target: Fuc(a1-2)Gal(b1-3)[Fuc(a1-4)]GlcNAc(b1-3)[Gal(b1-4)GlcNAc(b1-6)]Gal(b1-4)Glc
# In short: as §1
# [19] = target: Fuc(a1-2)Gal(b1-4)Fuc(a1-3)]GlcNAc(b1-2)Man(a1-3)[Fuc(a1-2)Gal(b1-4)[Fuc(a1-3)]GlcNAc(b1-2)Man(a1-6)]Man(b1-4)GlcNAc(b1-4)GlcNAc
# In short: as §1
# Fuc(a1-2)Gal(b1-4)Glc = target: Fuc(a1-2)Gal(b1-4)Glc
# In short: as §1
# Fuc(a1-2)Gal(b1-4)Glc6S = target: Fuc(a1-2)Gal(b1-4)Glc6S
# In short: as §1
# Fuc(a1-2)Gal(b1-4)GlcNAc = target: Fuc(a1-2)Gal(b1-4)GlcNAc
# In short: as §1
# [20] = target: Fuc(a1-2)Gal(b1-4)GlcNAc(b1-2)Man
# In short: as §1
# [21] = target: Fuc(a1-2)Gal(b1-4)GlcNAc(b1-2)Man(a1-3)[Fuc(a1-2)Gal(b1-4)GlcNAc(b1-2)Man(a1-6)]Man(b1-4)GlcNAc(b1-4)GlcNAc
# In short: as §1
# [22] = target: Fuc(a1-2)Gal(b1-4)GlcNAc(b1-2)Man(a1-3)[Fuc(a1-2)Gal(b1-4)GlcNAc(b1-2)Man(a1-6)]Man(b1-4)GlcNAc(b1-4)[Fuc(a1-6)]GlcNAc
# In short: as §1
# [23] = target: Fuc(a1-2)Gal(b1-4)GlcNAc(b1-2)[Fuc(a1-2)Gal(b1-4)GlcNAc(b1-4)]Man(a1-3)[Fuc(a1-2)Gal(b1-4)GlcNAc(b1-2)Man(a1-6)]Man(b1-4)GlcNAc(b1-4)GlcNAc
# In short: as §1
# [24] = target: Fuc(a1-2)Gal(b1-4)GlcNAc(b1-3)Gal(b1-4)GlcNAc
# In short: as §1
binder,measurement,setting,value
B1,glycan array binding signal (z-score),Fuc(a1-2)Gal,-0.038
same,glycan array binding signal (z-score),Fuc(a1-2)Gal(b1-3)GalNAc,-0.185
same,glycan array binding signal (z-score),[1],-0.144
same,glycan array binding signal (z-score),[2],-0.119
same,glycan array binding signal (z-score),[3],-0.129
same,glycan array binding signal (z-score),[4],-0.113
same,glycan array binding signal (z-score),[5],-0.07
same,glycan array binding signal (z-score),Fuc(a1-2)Gal(b1-3)GlcNAc,-0.117
same,glycan array binding signal (z-score),[6],-0.094
same,glycan array binding signal (z-score),[7],-0.223
same,glycan array binding signal (z-score),[8],-0.18
same,glycan array binding signal (z-score),[9],-0.268
same,glycan array binding signal (z-score),[10],-0.09
same,glycan array binding signal (z-score),[11],-0.113
same,glycan array binding signal (z-score),[12],-0.146
same,glycan array binding signal (z-score),[13],-0.031
same,glycan array binding signal (z-score),[14],-0.25
same,glycan array binding signal (z-score),[15],-0.037
same,glycan array binding signal (z-score),[16],-0.132
same,glycan array binding signal (z-score),[17],-0.328
same,glycan array binding signal (z-score),[18],-0.277
same,glycan array binding signal (z-score),[19],0.147
same,glycan array binding signal (z-score),Fuc(a1-2)Gal(b1-4)Glc,-0.104
same,glycan array binding signal (z-score),Fuc(a1-2)Gal(b1-4)Glc6S,-0.068
same,glycan array binding signal (z-score),Fuc(a1-2)Gal(b1-4)GlcNAc,-0.132
same,glycan array binding signal (z-score),[20],-0.202
same,glycan array binding signal (z-score),[21],-0.028
same,glycan array binding signal (z-score),[22],-0.193
same,glycan array binding signal (z-score),[23],-0.042
same,glycan array binding signal (z-score),[24],-0.243
